Test results as given in the supplement of paper PMC3334620.
Over roughly 33,000 sequences, “E-score (-0.5 to 0.5)” has its median near -0.054; the highest 2% begin near 0.35. The list shows a part of the results.

biological target: T1, Stb5 (UniProt P38699); test: PBM E-score (8-mer binding enrichment) (E-score (-0.5 to 0.5)); higher = stronger / more preferred TF binding; most listed sequences are background and not binding sites; details: protein concentration: 200 nM; construct: GST-full length
T1 sequence: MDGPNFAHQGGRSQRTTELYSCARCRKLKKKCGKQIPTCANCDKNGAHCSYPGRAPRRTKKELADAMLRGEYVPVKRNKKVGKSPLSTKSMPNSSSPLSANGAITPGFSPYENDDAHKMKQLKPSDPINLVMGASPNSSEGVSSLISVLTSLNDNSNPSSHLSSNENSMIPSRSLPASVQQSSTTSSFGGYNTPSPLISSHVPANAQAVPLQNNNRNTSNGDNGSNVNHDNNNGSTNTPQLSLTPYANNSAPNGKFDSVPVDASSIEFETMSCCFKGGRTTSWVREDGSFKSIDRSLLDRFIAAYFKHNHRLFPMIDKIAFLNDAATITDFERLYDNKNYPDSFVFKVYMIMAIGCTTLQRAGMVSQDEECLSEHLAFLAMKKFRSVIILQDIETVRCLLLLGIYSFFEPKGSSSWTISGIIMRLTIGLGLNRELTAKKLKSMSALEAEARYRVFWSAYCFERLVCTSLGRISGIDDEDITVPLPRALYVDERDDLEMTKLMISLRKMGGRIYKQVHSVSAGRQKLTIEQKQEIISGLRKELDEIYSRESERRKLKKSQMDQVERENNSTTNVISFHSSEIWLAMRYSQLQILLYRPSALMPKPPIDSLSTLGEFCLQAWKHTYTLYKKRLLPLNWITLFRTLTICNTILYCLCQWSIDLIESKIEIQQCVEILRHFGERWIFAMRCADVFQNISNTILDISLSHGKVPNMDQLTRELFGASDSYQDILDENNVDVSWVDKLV
How it was run: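 Yeast transcription factors, full-length or as DNA-binding domains, were expressed with a GST tag using PURExpress in vitro transcription/translation. At about 100-200 nM they were applied to universal all-10-mer Agilent arrays, double-stranded by primer extension on fresh or once-stripped slides. Fluorescent anti-GST detected bound protein, and masliner normalised the scans. E-scores for ungapped eight-base words, pooled with reverse complements, came from the Universal PBM Analysis Suite.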

| Sequence | PBM E-score |
| --- | --- |
| GCTCAGCA | -0.0662 |
| TAGTCCGA | 0.309 |
| ACACCCGC | 0.246 |
| ACCCCTAC | -0.171 |
| AATAGGTG | -0.213 |
| CTTACACC | 0.238 |
| AGCCCTAT | -0.188 |
| AAAAACAT | -0.199 |
| CTTGGACA | -0.0387 |
| CGTAGAAA | -0.144 |
| GAAACTTA | 0.00796 |
| TGAACCCA | -0.126 |
| CAGTCGCC | -0.00024 |
| AGTTTTTA | -0.105 |
| AGATTCAT | -0.232 |
| AGGAAGCA | -0.121 |
| CAAGTGGA | -0.204 |
| CCTGAGGA | -0.0963 |
| AGCCGGAT | 0.3 |
| CGTACTAC | 0.123 |
| AATCTGGT | 0.0765 |
| CACAACAA | -0.0976 |
| AAACTTTA | 0.0435 |
| ACCGTCCC | 0.266 |
| CTTCTAGA | -0.166 |

| Sequence | PBM E-score |
| --- | --- |
| GAAAGAGA | -0.124 |
| AACTTCCG | 0.255 |
| ATCCGCTG | 0.189 |
| ATGCAGTA | -0.07 |
| ACTTTAAT | -0.0458 |
| ACGGAGCG | 0.299 |
| AACAGAAT | -0.165 |
| GTATTCAA | 0.00883 |
| CCGGGTGA | 0.179 |
| AAGTGCGT | 0.0845 |
| CTCGGCAG | 0.0153 |
| GCATAAAA | 0.0437 |
| AAGCACCT | -0.21 |
| ATATTGGC | 0.0118 |
| CACCTGCG | -0.00428 |
| CGTCCCGC | 0.2 |
| AACGTTCG | -0.0398 |
| ACTCGTGA | -0.293 |
| AAGCTTTG | -0.222 |
| AAGATAGC | 0.00882 |
| TCAGGTCA | -0.142 |
| ATGTGAGC | -0.255 |
| TAGTTTCA | 0.0389 |
| GTAAATAA | -0.0506 |
| GACAGTCA | -0.131 |

| Sequence | PBM E-score |
| --- | --- |
| AGTAGCTC | -0.118 |
| ATATGCCG | 0.272 |
| CACCTCGG | 0.218 |
| TACATGAA | -0.118 |
| GGAACTCC | 0.181 |
| ACTGGACT | -0.192 |
| GTCCTGTA | 0.0814 |
| GACATAAA | 0.13 |
| GTATCCTA | -0.078 |
| AGGACATA | 0.0934 |
| CACAGACG | -0.0394 |
| CATTTTGG | -0.0988 |
| GATACACA | -0.151 |
| AGAAATAG | -0.115 |
| CTAAATCA | 0.0591 |
| GTACCCGA | 0.0499 |
| CTCTCCGA | 0.00777 |
| ACACTGCT | -0.267 |
| ACTGAGAG | -0.192 |
| AGCGATTG | -0.181 |
| GAGAAGAA | -0.262 |
| TGCCAGAA | -0.307 |
| TACTTGCA | -0.0614 |
| ACGGTACG | 0.214 |
| ACTTCTAA | 0.0116 |

| Sequence | PBM E-score |
| --- | --- |
| GCCCGTCC | 0.28 |
| GTGGCATA | -0.222 |
| AGTCGAAA | -0.109 |
| GGGTCTGA | -0.0307 |
| CCTACATA | 0.0245 |
| AGGTTCTG | -0.201 |
| ATTTAACA | 0.00106 |
| AGAAAGGA | -0.0618 |
| ACCAGAAC | -0.164 |
| AATCAAAT | -0.0658 |
| ATACTCAT | -0.105 |
| CGCGTCAG | -0.0371 |
| GAGAGGAA | -0.131 |
| AACTGTGG | -0.143 |
| CGGAAAAA | 0.254 |
| ATTATCGC | -0.0009 |
| CCAATTCC | 0.0601 |
| AGGCAGGC | -0.198 |
| AGGGTATG | -0.249 |
| ATGGACAA | -0.314 |
| CTAGAGTC | -0.243 |
| CGAGTGCG | 0.0659 |
| AGAGACTC | -0.355 |
| CTAAAGCA | 0.0717 |
| AAGGCATC | -0.161 |

| Sequence | PBM E-score |
| --- | --- |
| GTGTAAAC | -0.124 |
| ATGTATCG | 0.0258 |
| ATCAGGTG | -0.0422 |
| ACCGGGGA | 0.316 |
| ACGTTTGG | -0.139 |
| ACACTGCA | -0.172 |
| TGAGATCA | -0.167 |
| AGCCAACC | -0.126 |
| AAGACGAC | -0.0584 |
| CTTCTTCC | -0.0877 |
| ATACTGGA | 0.055 |
| AGCACCGA | 0.476 |
| AAAAGGCA | -0.087 |
| AAAGTGCT | -0.112 |
| CAACCACA | -0.101 |
| AAAGGATT | -0.138 |
| CTGACAAA | -0.124 |
| GGTGTTGA | 0.162 |
| AAGGCAAT | -0.0747 |
| AAGCCCAG | -0.154 |
| ATAGCCTG | -0.33 |
| ACACATCC | -0.108 |
| GACTGCAA | -0.165 |
| ACATAGAC | -0.0486 |
| CGCCCCGC | 0.325 |

| Sequence | PBM E-score |
| --- | --- |
| AACGTACT | -0.106 |
| TCCAATAA | 0.064 |
| GAAGCACA | -0.0648 |
| CAATCCCG | 0.281 |
| ATACCGTG | 0.249 |
| ACTACTTG | -0.179 |
| ATTTCTAC | -0.052 |
| AACTTAAC | 0.0345 |
| GCACGTGA | -0.337 |
| CCCCGGGG | 0.393 |
| CATTAACG | -0.00146 |
| AAGAATCA | 0.0573 |
| ACCTGGGC | -0.127 |
| GGTTGAAC | -0.0116 |
| CATTCAGA | -0.172 |
| ATCCGCTA | 0.155 |
| ACACATGT | -0.0468 |
| GCGTGTCC | -0.0227 |
| CCTGATTC | -0.194 |
| ATTAAGAC | -0.0328 |
| ATATCACG | -0.0706 |
| CGCATAAA | -0.127 |
| GCACTCAA | -0.0587 |
| TGTACACA | -0.225 |
| ACCCCGGA | 0.308 |

| Sequence | PBM E-score |
| --- | --- |
| GCCCACCA | -0.12 |
| AACTTGTA | -0.0937 |
| CCCAAGCG | -0.0803 |
| CTTTGGTA | -0.011 |
| ATTAACAC | -0.0259 |
| AGGAACGG | 0.197 |
| CTTAAAGA | -0.00272 |
| CATAACAG | 0.0446 |
| TAGACGAA | -0.16 |
| AGAGTGCA | -0.133 |
| GAGTGTCA | -0.216 |
| AAGAACCC | 0.043 |
| ACCATAAA | -0.0332 |
| CCCAATAC | -0.139 |
| ATTTACCC | 0.0882 |
| GGAGTGTA | 0.108 |
| AATTGTAA | -0.0199 |
| ACAGGGAA | -0.147 |
| AGCCCAGC | -0.0545 |
| TAGCCAGA | -0.2 |
| AGCTAATC | -0.0939 |
| GTCCACGA | -0.134 |
